Patent US20230404081A1, “A FORMULATION AND A METHOD FOR INDUCING DEFENSE RESPONSE IN PLANTS” (NATIONAL INSTITUTE OF PLANT GENOME RESEARCH, priority 2020, published 2023)

System: Pseudomonas syringae pv. Tomato avrrpm1 DC3000
Assay: Challenge of sodium dithionite treated plants with Pseudomonas syringae, bacterial count
Conditions: distal part challenged with 1×10^8 CFU/ml, 48 hpi, vs control plants
Method: Since salicylic acid (SA) is important in the induction of systemic acquired resistance in plants, the distal leaf samples were collected for SA estimation at 6h post-sodium dithionite treatment. […] After observing higher SA accumulation in the distal parts of sodium dithionite treated plants, its efficiency against pathogen spread was checked. The sodium dithionite treated plants were challenged with Pseudomonas syringae pv. Tomato avrrpm1 DC3000 (1×10^8 CFU/ml) to the distal part of the plants and observed phenotype of disease development till 48 hours post infection (hpi) (FIG. 8). […] FIG. 8A depicts the SA levels from distal leaves in response to sodium dithionite treatment. FIG. 8B depicts the bacterial growth in response to sodium dithionite treatment.

## O=S([O-])S(=O)[O-].[Na+].[Na+] [sodium dithionite]
  bacterial count: Significant reduction in bacterial count
